# Reference: the supplement of paper PMC8728848
# This is one part of the list.
# B1: Pwp4 (Candida glabrata) (protein)
# chain: MGSSHHHHHHSSGLVPRGSHMASVGNPITVSNVCSFPKNWHRTAGFRALTARLGIGIQSDSYKELLNYPGTFQLTTQQSSTTKPNFQISGLVGNIYGLTIVPSYLLVELTGYFVPPVSGEYTFSLEGSDDAAIIFIANPSTFKCGHVEDWPTAYDNDVTVTESIHATRTIYMIEGVAYPIRIAYYNGLSLGKLQASFTDPEGVKRVDWNGYIWRYDSCDTCSYV
# Legend:
# Experiment in all cases: glycan array binding signal (z-score within array); higher = stronger binding
# Details in all cases: glycan notation: IUPAC condensed, linker removed
# [1] = biological target: Neu5Ac(a2-3)Gal(b1-3)GalNAc
# Summary of the method: (§1)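 Arrays were curated from the Consortium for Functional Glycomics database, 3228 in total, and kept only where the protein sequence was available. Binding is expressed as a within-array Z-score. This score was averaged across arrays of the same protein sequence at different concentrations or buffers and across linkers, and negative values can be read as non-binding.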
# [2] = biological target: Neu5Ac(a2-3)Gal(b1-3)GalNAc(b1-3)Gal(a1-4)Gal(b1-4)Glc
# Summary of the method: as §1
# [3] = biological target: Neu5Ac(a2-3)Gal(b1-3)GalNAc(b1-4)Gal(b1-4)Glc
# Summary of the method: as §1
# [4] = biological target: Neu5Ac(a2-3)Gal(b1-3)GalNAc(b1-4)[Neu5Ac(a2-3)]Gal(b1-4)Glc
# Summary of the method: as §1
# [5] = biological target: Neu5Ac(a2-3)Gal(b1-3)GalNAc(b1-4)[Neu5Ac(a2-8)Neu5Ac(a2-3)]Gal(b1-4)Glc
# Summary of the method: as §1
# [6] = biological target: Neu5Ac(a2-3)Gal(b1-3)GalNAc6S
# Summary of the method: as §1
# [7] = biological target: Neu5Ac(a2-3)Gal(b1-3)GlcNAc
# Summary of the method: as §1
# [8] = biological target: Neu5Ac(a2-3)Gal(b1-3)GlcNAc(b1-2)Man
# Summary of the method: as §1
# [9] = biological target: Neu5Ac(a2-3)Gal(b1-3)GlcNAc(b1-2)Man(a1-3)[GlcNAc(b1-4)][Neu5Ac(a2-3)Gal(b1-3)GlcNAc(b1-2)Man(a1-6)]Man(b1-4)GlcNAc(b1-4)GlcNAc
# Summary of the method: as §1
# [10] = biological target: Neu5Ac(a2-3)Gal(b1-3)GlcNAc(b1-2)Man(a1-3)[Neu5Ac(a2-3)Gal(b1-3)GlcNAc(b1-2)Man(a1-6)]Man(b1-4)GlcNAc(b1-4)GlcNAc
# Summary of the method: as §1
# [11] = biological target: Neu5Ac(a2-3)Gal(b1-3)GlcNAc(b1-2)[Neu5Ac(a2-3)Gal(b1-3)GlcNAc(b1-4)]Man(a1-6)[Neu5Ac(a2-3)Gal(b1-3)GlcNAc(b1-2)Man(a1-3)]Man(b1-4)GlcNAc(b1-4)GlcNAc
# Summary of the method: as §1
# [12] = biological target: Neu5Ac(a2-3)Gal(b1-3)GlcNAc(b1-3)Gal(b1-3)GlcNAc
# Summary of the method: as §1
# [13] = biological target: Neu5Ac(a2-3)Gal(b1-3)GlcNAc(b1-3)Gal(b1-4)GlcNAc
# Summary of the method: as §1
# [14] = biological target: Neu5Ac(a2-3)Gal(b1-3)GlcNAc(b1-3)GalNAc
# Summary of the method: as §1
# [15] = biological target: Neu5Ac(a2-3)Gal(b1-3)GlcNAc(b1-6)GalNAc
# Summary of the method: as §1
# [16] = biological target: Neu5Ac(a2-3)Gal(b1-3)GlcNAc6S
# Summary of the method: as §1
# [17] = biological target: Neu5Ac(a2-3)Gal(b1-3)[Fuc(a1-4)]GlcNAc
# Summary of the method: as §1
# [18] = biological target: Neu5Ac(a2-3)Gal(b1-3)[Fuc(a1-4)]GlcNAc(b1-3)Gal(b1-3)[Fuc(a1-4)]GlcNAc
# Summary of the method: as §1
# [19] = biological target: Neu5Ac(a2-3)Gal(b1-3)[Fuc(a1-4)]GlcNAc(b1-3)Gal(b1-4)[Fuc(a1-3)]GlcNAc
# Summary of the method: as §1
# [20] = biological target: Neu5Ac(a2-3)Gal(b1-3)[GlcNAc(b1-6)]GalNAc
# Summary of the method: as §1
# [21] = biological target: Neu5Ac(a2-3)Gal(b1-3)[Neu5Ac(a2-6)]GalNAc
# Summary of the method: as §1
# [22] = biological target: Neu5Ac(a2-3)Gal(b1-3)[Neu5Ac(a2-6)]GlcNAc(b1-3)[Fuc(a1-3)[Gal(b1-4)]GlcNAc(b1-6)]Gal(b1-4)Glc
# Summary of the method: as §1
# [23] = biological target: Neu5Ac(a2-3)Gal(b1-3)]Neu5Ac(a2-3)Gal(b1-4)]GlcNAc
# Summary of the method: as §1
# [24] = biological target: Neu5Ac(a2-3)Gal(b1-4)Glc
# Summary of the method: as §1
# [25] = biological target: Neu5Ac(a2-3)Gal(b1-4)GlcNAc
# Summary of the method: as §1
# [26] = biological target: Neu5Ac(a2-3)Gal(b1-4)GlcNAc(b1-2)Man
# Summary of the method: as §1
# [27] = biological target: Neu5Ac(a2-3)Gal(b1-4)GlcNAc(b1-2)Man(a1-3)[GlcNAc(b1-4)][Neu5Ac(a2-3)Gal(b1-4)GlcNAc(b1-2)Man(a1-6)]Man(b1-4)GlcNAc(b1-4)GlcNAc
# Summary of the method: as §1
# [28] = biological target: Neu5Ac(a2-3)Gal(b1-4)GlcNAc(b1-2)Man(a1-3)[Neu5Ac(a2-3)Gal(b1-4)GlcNAc(b1-2)Man(a1-6)]Man(b1-4)GlcNAc(b1-4)GlcNAc
# Summary of the method: as §1
# [29] = biological target: Neu5Ac(a2-3)Gal(b1-4)GlcNAc(b1-2)Man(a1-3)[Neu5Ac(a2-3)Gal(b1-4)GlcNAc(b1-2)Man(a1-6)]Man(b1-4)GlcNAc(b1-4)[Fuc(a1-6)]GlcNAc
# Summary of the method: as §1
# [30] = biological target: Neu5Ac(a2-3)Gal(b1-4)GlcNAc(b1-2)Man(a1-3)[Neu5Ac(a2-6)Gal(b1-4)GlcNAc(b1-2)Man(a1-6)]Man(b1-4)GlcNAc(b1-4)GlcNAc
# Summary of the method: as §1
# [31] = biological target: Neu5Ac(a2-3)Gal(b1-4)GlcNAc(b1-2)[Neu5Ac(a2-3)Gal(b1-4)GlcNAc(b1-4)]Man(a1-3)[GlcNAc(b1-4)][Neu5Ac(a2-3)Gal(b1-4)GlcNAc(b1-2)[Neu5Ac(a2-3)Gal(b1-4)GlcNAc(b1-6)]Man(a1-6)]Man(b1-4)GlcNAc(b1-4)GlcNAc
# Summary of the method: as §1
# [32] = biological target: Neu5Ac(a2-3)Gal(b1-4)GlcNAc(b1-2)[Neu5Ac(a2-3)Gal(b1-4)GlcNAc(b1-4)]Man(a1-3)[GlcNAc(b1-4)][Neu5Ac(a2-3)Gal(b1-4)GlcNAc(b1-4)Man(a1-6)]Man(b1-4)GlcNAc(b1-4)GlcNAc
# Summary of the method: as §1
# [33] = biological target: Neu5Ac(a2-3)Gal(b1-4)GlcNAc(b1-2)[Neu5Ac(a2-3)Gal(b1-4)GlcNAc(b1-6)]Man(a1-6)[Neu5Ac(a2-3)Gal(b1-4)GlcNAc(b1-2)Man(a1-3)][GlcNAc(b1-4)]Man(b1-4)GlcNAc(b1-4)GlcNAc
# Summary of the method: as §1
# [34] = biological target: Neu5Ac(a2-3)Gal(b1-4)GlcNAc(b1-3)Gal
# Summary of the method: as §1
# [35] = biological target: Neu5Ac(a2-3)Gal(b1-4)GlcNAc(b1-3)Gal(b1-3)GlcNAc
# Summary of the method: as §1
# [36] = biological target: Neu5Ac(a2-3)Gal(b1-4)GlcNAc(b1-3)Gal(b1-4)GlcNAc
# Summary of the method: as §1
# [37] = biological target: Neu5Ac(a2-3)Gal(b1-4)GlcNAc(b1-3)Gal(b1-4)GlcNAc(b1-2)Man(a1-3)[Neu5Ac(a2-3)Gal(b1-4)GlcNAc(b1-3)Gal(b1-4)GlcNAc(b1-2)Man(a1-6)]Man(b1-4)GlcNAc(b1-4)GlcNAc
# Summary of the method: as §1
# [38] = biological target: Neu5Ac(a2-3)Gal(b1-4)GlcNAc(b1-3)Gal(b1-4)GlcNAc(b1-3)Gal(b1-4)GlcNAc
# Summary of the method: as §1
# [39] = biological target: Neu5Ac(a2-3)Gal(b1-4)GlcNAc(b1-3)Gal(b1-4)GlcNAc(b1-3)Gal(b1-4)GlcNAc(b1-2)Man(a1-3)[Neu5Ac(a2-3)Gal(b1-4)GlcNAc(b1-3)Gal(b1-4)GlcNAc(b1-3)Gal(b1-4)GlcNAc(b1-2)Man(a1-6)]GalNAc
# Summary of the method: as §1
# [40] = biological target: Neu5Ac(a2-3)Gal(b1-4)GlcNAc(b1-3)Gal(b1-4)GlcNAc(b1-3)GalNAc
# Summary of the method: as §1
# [41] = biological target: Neu5Ac(a2-3)Gal(b1-4)GlcNAc(b1-3)Gal(b1-4)GlcNAc(b1-3)[Neu5Ac(a2-3)Gal(b1-4)GlcNAc(b1-3)Gal(b1-4)GlcNAc(b1-6)]GalNAc
# Summary of the method: as §1
# [42] = biological target: Neu5Ac(a2-3)Gal(b1-4)GlcNAc(b1-3)Gal(b1-4)GlcNAc(b1-6)[Gal(b1-3)]GalNAc
# Summary of the method: as §1
# [43] = biological target: Neu5Ac(a2-3)Gal(b1-4)GlcNAc(b1-3)Gal(b1-4)[Fuc(a1-3)]GlcNAc
# Summary of the method: as §1
# [44] = biological target: Neu5Ac(a2-3)Gal(b1-4)GlcNAc(b1-3)GalNAc
# Summary of the method: as §1
# [45] = biological target: Neu5Ac(a2-3)Gal(b1-4)GlcNAc(b1-3)[Neu5Ac(a2-3)Gal(b1-4)GlcNAc(b1-6)]GalNAc
# Summary of the method: as §1
binder,measurement,setting,value
B1,glycan array binding signal (z-score),[1],0.985
same,glycan array binding signal (z-score),[2],-0.123
same,glycan array binding signal (z-score),[3],1.86
same,glycan array binding signal (z-score),[4],-0.275
same,glycan array binding signal (z-score),[5],1.36
same,glycan array binding signal (z-score),[6],-0.345
same,glycan array binding signal (z-score),[7],-0.607
same,glycan array binding signal (z-score),[8],-0.557
same,glycan array binding signal (z-score),[9],0.277
same,glycan array binding signal (z-score),[10],-0.164
same,glycan array binding signal (z-score),[11],-0.334
same,glycan array binding signal (z-score),[12],-0.683
same,glycan array binding signal (z-score),[13],-0.596
same,glycan array binding signal (z-score),[14],-0.305
same,glycan array binding signal (z-score),[15],-0.39
same,glycan array binding signal (z-score),[16],-0.165
same,glycan array binding signal (z-score),[17],0.218
same,glycan array binding signal (z-score),[18],-0.423
same,glycan array binding signal (z-score),[19],-0.286
same,glycan array binding signal (z-score),[20],3.89
same,glycan array binding signal (z-score),[21],-0.221
same,glycan array binding signal (z-score),[22],-0.453
same,glycan array binding signal (z-score),[23],-0.455
same,glycan array binding signal (z-score),[24],-0.413
same,glycan array binding signal (z-score),[25],-0.091
same,glycan array binding signal (z-score),[26],-0.174
same,glycan array binding signal (z-score),[27],-0.142
same,glycan array binding signal (z-score),[28],-0.563
same,glycan array binding signal (z-score),[29],1.34
same,glycan array binding signal (z-score),[30],0.37
same,glycan array binding signal (z-score),[31],-0.591
same,glycan array binding signal (z-score),[32],-0.489
same,glycan array binding signal (z-score),[33],9.42
same,glycan array binding signal (z-score),[34],0.071
same,glycan array binding signal (z-score),[35],-0.584
same,glycan array binding signal (z-score),[36],-0.408
same,glycan array binding signal (z-score),[37],-0.256
same,glycan array binding signal (z-score),[38],0.214
same,glycan array binding signal (z-score),[39],0.096
same,glycan array binding signal (z-score),[40],0.201
same,glycan array binding signal (z-score),[41],-0.419
same,glycan array binding signal (z-score),[42],-0.519
same,glycan array binding signal (z-score),[43],-0.414
same,glycan array binding signal (z-score),[44],-0.255
same,glycan array binding signal (z-score),[45],0.136
